Data from the supplement of paper PMC8728848.
Some of the results follow.

Tests used:
Test in all cases: glycan array binding signal (z-score within array); higher = stronger binding
Settings in all cases: glycan notation: IUPAC condensed, linker removed
[1] = target: Gal(b1-2)Gal
Procedure, shortened: (§1)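 Glycan array binding is given as a within-array Z-score, which can be read as non-binding when negative. The arrays, 3228 of them, came from the Consortium for Functional Glycomics database and were retained only where the protein sequence was available. Z-scores were averaged across arrays of the same protein sequence at different concentrations or buffers and across linkers.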

[2] = target: Gal(b1-3)Gal
Procedure, shortened: as §1

[3] = target: Gal(b1-3)Gal(b1-4)GlcNAc
Procedure, shortened: as §1

[4] = target: Gal(b1-3)GalNAc
Procedure, shortened: as §1

[5] = target: Gal(b1-3)GalNAc(a1-3)[Fuc(a1-2)]Gal(b1-4)Glc
Procedure, shortened: as §1

[6] = target: Gal(b1-3)GalNAc(a1-3)[Fuc(a1-2)]Gal(b1-4)GlcNAc
Procedure, shortened: as §1

[7] = target: Gal(b1-3)GalNAc(b1-3)Gal
Procedure, shortened: as §1

[8] = target: Gal(b1-3)GalNAc(b1-3)Gal(a1-4)Gal(b1-4)Glc
Procedure, shortened: as §1

[9] = target: Gal(b1-3)GalNAc(b1-4)Gal(b1-4)Glc
Procedure, shortened: as §1

[10] = target: Gal(b1-3)GalNAc(b1-4)[Neu5Ac(a2-3)]Gal(b1-4)Glc
Procedure, shortened: as §1

[11] = target: Gal(b1-3)GlcNAc
Procedure, shortened: as §1

[12] = target: Gal(b1-3)GlcNAc(a1-3)Gal(b1-4)GlcNAc
Procedure, shortened: as §1

[13] = target: Gal(b1-3)GlcNAc(a1-6)Gal(b1-4)GlcNAc
Procedure, shortened: as §1

[14] = target: Gal(b1-3)GlcNAc(b1-2)Man
Procedure, shortened: as §1

[15] = target: Gal(b1-3)GlcNAc(b1-2)Man(a1-3)[Gal(b1-3)GlcNAc(b1-2)Man(a1-6)]Man(b1-4)GlcNAc(b1-4)GlcNAc
Procedure, shortened: as §1

[16] = target: Gal(b1-3)GlcNAc(b1-2)Man(a1-3)[Gal(b1-3)GlcNAc(b1-2)Man(a1-6)]Man(b1-4)GlcNAc(b1-4)[Fuc(a1-6)]GlcNAc
Procedure, shortened: as §1

[17] = target: Gal(b1-3)GlcNAc(b1-2)Man(a1-3)[GlcNAc(b1-4)][Gal(b1-3)GlcNAc(b1-2)Man(a1-6)]Man(b1-4)GlcNAc(b1-4)GlcNAc
Procedure, shortened: as §1

[18] = target: Gal(b1-3)GlcNAc(b1-2)[Gal(b1-3)GlcNAc(b1-6)]Man(a1-6)[Gal(b1-3)GlcNAc(b1-2)Man(a1-3)]Man(b1-4)GlcNAc(b1-4)GlcNAc
Procedure, shortened: as §1

[19] = target: Gal(b1-3)GlcNAc(b1-3)Gal(b1-3)GlcNAc
Procedure, shortened: as §1

[20] = target: Gal(b1-3)GlcNAc(b1-3)Gal(b1-4)Glc
Procedure, shortened: as §1

[21] = target: Gal(b1-3)GlcNAc(b1-3)Gal(b1-4)GlcNAc
Procedure, shortened: as §1

[22] = target: Gal(b1-3)GlcNAc(b1-3)Gal(b1-4)GlcNAc(b1-2)Man(a1-3)[Gal(b1-3)GlcNAc(b1-3)Gal(b1-4)GlcNAc(b1-2)Man(a1-6)]Man(b1-4)GlcNAc(b1-4)GlcNAc
Procedure, shortened: as §1

[23] = target: Gal(b1-3)GlcNAc(b1-3)Gal(b1-4)GlcNAc(b1-2)[Gal(b1-3)GlcNAc(b1-3)Gal(b1-4)GlcNAc(b1-6)]Man(a1-6)[Gal(b1-3)GlcNAc(b1-3)Gal(b1-4)GlcNAc(b1-2)Man(a1-3)]Man(b1-4)GlcNAc(b1-4)[Fuc(a1-6)]GlcNAc
Procedure, shortened: as §1

[24] = target: Gal(b1-3)GlcNAc(b1-3)Gal(b1-4)GlcNAc(b1-3)Gal(b1-4)GlcNAc(b1-2)[Gal(b1-3)GlcNAc(b1-3)Gal(b1-4)GlcNAc(b1-3)Gal(b1-4)GlcNAc(b1-6)]Man(a1-6)[Gal(b1-3)GlcNAc(b1-3)Gal(b1-4)GlcNAc(b1-3)Gal(b1-4)GlcNAc(b1-2)Man(a1-3)]Man(b1-4)GlcNAc(b1-4)[Fuc(a1-6)]GlcNAc
Procedure, shortened: as §1

[25] = target: Gal(b1-3)GlcNAc(b1-3)Gal(b1-4)GlcNAc(b1-6)[Gal(b1-3)GlcNAc(b1-3)]Gal(b1-4)Glc
Procedure, shortened: as §1

[26] = target: Gal(b1-3)GlcNAc(b1-3)Gal(b1-4)[Fuc(a1-3)]GlcNAc
Procedure, shortened: as §1

[27] = target: Gal(b1-3)GlcNAc(b1-3)Gal(b1-4)[Fuc(a1-3)]GlcNAc(b1-6)[Gal(b1-3)GlcNAc(b1-3)]Gal(b1-4)Glc
Procedure, shortened: as §1

[28] = target: Gal(b1-3)GlcNAc(b1-3)GalNAc
Procedure, shortened: as §1

[29] = target: Gal(b1-3)GlcNAc(b1-6)Gal(b1-4)GlcNAc
Procedure, shortened: as §1

[30] = target: Gal(b1-3)GlcNAc(b1-6)GalNAc
Procedure, shortened: as §1

[31] = target: Gal(b1-3)GlcNAc(b1-6)[Gal(b1-3)]GalNAc
Procedure, shortened: as §1

[32] = target: Gal(b1-3)GlcNAc6S
Procedure, shortened: as §1

[33] = target: Gal(b1-3)[Fuc(a1-4)]GlcNAc
Procedure, shortened: as §1

[34] = target: Gal(b1-3)[Fuc(a1-4)]GlcNAc(b1-2)Man
Procedure, shortened: as §1

[35] = target: Gal(b1-3)[Fuc(a1-4)]GlcNAc(b1-2)Man(a1-3)[Gal(b1-3)[Fuc(a1-4)]GlcNAc(b1-2)Man(a1-6)]Man(b1-4)GlcNAc(b1-4)[Fuc(a1-6)]GlcNAc
Procedure, shortened: as §1

[36] = target: Gal(b1-3)[Fuc(a1-4)]GlcNAc(b1-3)Gal(b1-3)[Fuc(a1-4)]GlcNAc
Procedure, shortened: as §1

[37] = target: Gal(b1-3)[Fuc(a1-4)]GlcNAc(b1-3)Gal(b1-4)[Fuc(a1-3)]GlcNAc
Procedure, shortened: as §1

[38] = target: Gal(b1-3)[Fuc(a1-4)]GlcNAc(b1-6)GalNAc
Procedure, shortened: as §1

[39] = target: Gal(b1-3)[GlcNAc(b1-6)]GalNAc
Procedure, shortened: as §1

[40] = target: Gal(b1-3)[Neu5Ac(a2-6)]GalNAc
Procedure, shortened: as §1

[41] = target: Gal(b1-3)[Neu5Ac(a2-6)]GlcNAc(b1-4)Gal(b1-4)Glc
Procedure, shortened: as §1

[42] = target: Gal(b1-3)[Neu5Ac(b2-6)]GalNAc
Procedure, shortened: as §1

[43] = target: Gal(b1-4)Gal
Procedure, shortened: as §1

[44] = target: Gal(b1-4)GalNAc(a1-3)[Fuc(a1-2)]Gal(b1-4)GlcNAc
Procedure, shortened: as §1

[45] = target: Gal(b1-4)GalNAc(b1-3)[Fuc(a1-2)]Gal(b1-4)GlcNAc
Procedure, shortened: as §1

B1: RBMC2 (Vibrio cholerae) (protein)
chain: KISVRSGFAIDAIGASASTLVGGTGGNLNAAVNVKDIKAIDLTWGKYYWGGYHLLALDFRMSNGSVISMGSKNYAYSKQTERFTVPAGSRIKGIKAWTAGWLLDGVQFELA
Q: What does the source list for B1?
A: glycan array binding signal (z-score) [1]: -0.249; glycan array binding signal (z-score) [2]: -0.438; glycan array binding signal (z-score) [3]: -0.382; glycan array binding signal (z-score) [4]: -0.233; glycan array binding signal (z-score) [5]: -0.069; glycan array binding signal (z-score) [6]: -0.258; glycan array binding signal (z-score) [7]: -0.404; glycan array binding signal (z-score) [8]: -0.339; glycan array binding signal (z-score) [9]: -0.191; glycan array binding signal (z-score) [10]: -0.407; glycan array binding signal (z-score) [11]: -0.297; glycan array binding signal (z-score) [12]: -0.3; glycan array binding signal (z-score) [13]: -0.422; glycan array binding signal (z-score) [14]: -0.386; glycan array binding signal (z-score) [15]: 3.3; glycan array binding signal (z-score) [16]: 1.55; glycan array binding signal (z-score) [17]: -0.232; glycan array binding signal (z-score) [18]: -0.23; glycan array binding signal (z-score) [19]: -0.371; glycan array binding signal (z-score) [20]: -0.361; glycan array binding signal (z-score) [21]: -0.35; glycan array binding signal (z-score) [22]: 0.919; glycan array binding signal (z-score) [23]: 0.071; glycan array binding signal (z-score) [24]: -0.181; glycan array binding signal (z-score) [25]: -0.372; glycan array binding signal (z-score) [26]: -0.2; glycan array binding signal (z-score) [27]: -0.278; glycan array binding signal (z-score) [28]: -0.342; glycan array binding signal (z-score) [29]: -0.056; glycan array binding signal (z-score) [30]: -0.394; glycan array binding signal (z-score) [31]: -0.139; glycan array binding signal (z-score) [32]: -0.092; glycan array binding signal (z-score) [33]: -0.311; glycan array binding signal (z-score) [34]: -0.125; glycan array binding signal (z-score) [35]: -0.354; glycan array binding signal (z-score) [36]: -0.466; glycan array binding signal (z-score) [37]: -0.424; glycan array binding signal (z-score) [38]: -0.311; glycan array binding signal (z-score) [39]: -0.344; glycan array binding signal (z-score) [40]: -0.366; glycan array binding signal (z-score) [41]: -0.417; glycan array binding signal (z-score) [42]: -0.38; glycan array binding signal (z-score) [43]: -0.359; glycan array binding signal (z-score) [44]: -0.328; glycan array binding signal (z-score) [45]: -0.345
